{"source": "paper PMC6546751", "about": "“Structural basis for substrate gripping and translocation by the ClpB AAA+ disaggregase” (Nature Communications, 2019)", "proteins": {"B1": {"name": "Escherichia coli ClpB K476C hyperactive middle-domain variant (enzyme)", "chain": "not shown", "notes": "ClpB, Escherichia coli, with K476C in helix L2 of the middle domain; NTD, NBD1 and NBD2 are seen in the maps; Expressed from the pDS56/RBSII plasmid; Hexamer (protomers P1-P6) in the cryo-EM structures; source: E. coli M15, purified (Ni-NTA, HisTrap HP)"}}, "target": "the molecule itself", "test": "cryo-EM structure; ClpB (150 μM) incubated with ATPγS (5 mM) and FITC-casein (150 µM) in 40 mM HEPES pH 7.5, 40 mM KCl, 10 mM MgCl2, 1 mM DTT; complex purified by SEC (Superose 6 Increase 3.2/300) before freezing"}
{"protein": "B1", "values": [{"measurement": "stoichiometry N", "value": 6}]}
